Common to all, as to experiment: two-hybrid; AD-DAO co-transformed with BD-G72 constructs into S. cerevisiae AH109; growth on SD/-Leu/-Trp/-Ade/-His (SD/-4) plates, 30 °C, 3 to 4 days
One assay addresses T1, BD-G72(1-60) (UniProt P59103).
T1 sequence: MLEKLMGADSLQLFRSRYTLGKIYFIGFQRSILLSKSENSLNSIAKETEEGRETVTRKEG

Sequences of proteins named here, by UniProt entry; tags and fusion partners are left off.
UniProt P14920: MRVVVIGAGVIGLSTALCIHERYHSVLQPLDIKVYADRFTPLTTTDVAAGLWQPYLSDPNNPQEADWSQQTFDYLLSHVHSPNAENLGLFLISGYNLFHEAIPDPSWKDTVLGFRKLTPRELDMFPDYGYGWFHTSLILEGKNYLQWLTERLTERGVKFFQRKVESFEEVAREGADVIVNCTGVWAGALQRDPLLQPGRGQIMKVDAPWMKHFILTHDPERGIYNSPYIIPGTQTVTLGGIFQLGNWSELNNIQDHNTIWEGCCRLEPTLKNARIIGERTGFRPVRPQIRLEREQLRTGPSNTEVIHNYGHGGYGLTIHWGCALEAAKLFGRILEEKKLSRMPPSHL

The next assay deals with T2, BD-G72(1-137) (UniProt P59103).
T2 sequence: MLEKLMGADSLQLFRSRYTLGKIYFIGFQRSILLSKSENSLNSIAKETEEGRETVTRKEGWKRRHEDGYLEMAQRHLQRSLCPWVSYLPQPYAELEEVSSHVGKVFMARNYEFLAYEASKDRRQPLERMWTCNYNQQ

Assay [1] addresses BD-G72 (full-length G72 N-terminally tagged with the binding domain) (UniProt P59103).
The target in a further assay is T3, BD-G72(1-20) (UniProt P59103).
T3 sequence: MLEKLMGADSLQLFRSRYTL

In another assay the target is T4, BD-G72(1-122) (UniProt P59103).
T4 sequence: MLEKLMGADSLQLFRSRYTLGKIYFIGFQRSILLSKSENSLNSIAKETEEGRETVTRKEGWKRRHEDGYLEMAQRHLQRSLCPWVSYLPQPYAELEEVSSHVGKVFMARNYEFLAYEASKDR

The next assay addresses T5, BD-G72(1-35) (UniProt P59103).
T5 sequence: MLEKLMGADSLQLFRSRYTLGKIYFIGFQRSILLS

These are yes or no findings as the source states them, for the method shown. Some entries that bind do so weakly or less than the wild type. For part of these data: Tags and fused reporters may be left off the sequences shown.

The values below come from PMC3907796.

In the case of “AD-DAO (D-amino acid oxidase N-terminally tagged with the activation domain) (from UniProt P14920 1-347) (enzyme)”, the binding result with BD-G72(1-60) was “no binding”; with BD-G72(1-137), “no binding”; in assay [1] it was “binds”; in the assay with BD-G72(1-20) it was “no binding”; with BD-G72(1-122), “no binding”; with BD-G72(1-35), “no binding”.
